Measurements: PubChem BioAssay AID1030 (National Center for Advancing Translational Sciences (NCATS), 2008)
Out of some 220,000 compounds screened, about 16,000 (7.3%) were called active. Inconclusive results, whose numbers are uncertain, are shown with a selection of clear calls. Calls come from the whole dose curve; as a rule, active = well fitted inhibition curve with a large enough effect (not every such curve was filed as active); inconclusive = small, poorly fitted or top-dose-only effect, or another doubt; inactive = no such curve, though single readings can be large or run the other way. Potencies of inconclusive entries are left out as doubtful fits. A structure can be active in one record and inactive in another.

molecular target: Aldehyde dehydrogenase 1A1 (Homo sapiens) (UniProt P00352); experiment: qHTS Assay for Inhibitors of Aldehyde Dehydrogenase 1 (ALDH1A1); conditions: Purified ALDH1A1, NADH fluorescence, propionaldehyde substrate; series mostly up to 75.3 µM;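 for activity, negative = inhibition: plate controls were no enzyme wells and a reference inhibitor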
Potency is the fitted concentration of half-maximal effect; tags give direction and shape of the fitted curve.

Sequence of UniProt P00352 (P00352 whole entry, looked up): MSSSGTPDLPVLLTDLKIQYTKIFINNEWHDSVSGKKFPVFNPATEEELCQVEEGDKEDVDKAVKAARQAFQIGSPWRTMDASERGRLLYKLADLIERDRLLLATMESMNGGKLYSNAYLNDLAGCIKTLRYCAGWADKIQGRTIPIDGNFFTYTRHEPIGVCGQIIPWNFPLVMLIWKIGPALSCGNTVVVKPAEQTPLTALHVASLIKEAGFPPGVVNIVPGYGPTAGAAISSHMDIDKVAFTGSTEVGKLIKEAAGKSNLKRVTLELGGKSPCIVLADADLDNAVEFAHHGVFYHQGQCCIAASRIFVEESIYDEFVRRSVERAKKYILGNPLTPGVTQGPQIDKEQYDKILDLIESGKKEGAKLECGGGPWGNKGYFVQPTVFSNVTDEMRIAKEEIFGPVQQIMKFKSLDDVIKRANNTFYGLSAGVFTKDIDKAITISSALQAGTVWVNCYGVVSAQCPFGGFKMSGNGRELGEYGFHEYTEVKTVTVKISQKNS

SMILES | Potency | activity, negative = inhibition
CCn1c(SCC(=O)Nc2cccc(F)c2)nc2c(c1=O)SC(C)C2 (stereo not drawn) | inconclusive [inhibitor, single point] | 
C=CCSc1ncnc2c1oc1nc3c(cc12)COC(C)(C)C3 | inconclusive [inhibitor, partial curve] | 
O=C(NCCc1ccccc1)C(c1ccncc1)N(C(=O)c1csnn1)C1CC1 (stereo not drawn) | inconclusive [inhibitor, single point] | 
CCCn1nnc(NC(=O)c2sc3ccccc3c2Cl)n1 | inconclusive [inhibitor, single point] | 
CC(C)NC(=S)NN=C1CCC(c2ccccc2)CC1 (stereo not drawn) | inactive | 
O=S(=O)(Nc1nc(CN2CCOCC2)nc2sc3c(c12)CCCC3)c1cc(F)ccc1F | active: 14.1 µM | 
Cc1ccc(-c2cn3cccnc3n2)cc1NC(=O)c1ccc(Br)o1 | inconclusive [inhibitor, partial curve] | 
O=C(CSc1ncnc2nc[nH]c12)c1ccccc1 | active: 28.2 µM | 
COC(=O)COc1ccc(S(=O)(=O)N2CCN(c3ccc(OC)cc3)CC2)cc1 | inactive | 
CCOc1ccc(/C=C/C(=O)CCC(=O)O)cc1 | inconclusive [inhibitor, single point] | 
CS(=O)(=O)N(Cc1ccc(Cl)cc1)c1ccc(C(=O)NCCSCc2ccco2)cc1 | inconclusive [inhibitor, single point] | 
COc1ccc(C2CC(c3cccs3)=NN2C(=O)CSc2nc3ccccc3s2)cc1 (stereo not drawn) | inconclusive [inhibitor, single point] | 
O=C(CSc1ccccc1)Nc1ccc(N2CCOCC2)cc1 | inconclusive [inhibitor, single point] | 
Cc1ccc(OC(=O)C2c3ccccc3Oc3ccccc32)cc1C | inactive | 
Cn1nc(C(=O)N2CCc3ccccc32)c2ccccc2c1=O | inconclusive [inhibitor, single point] | 
Cc1ccc(/C=C/C(=O)Nc2nnc(C)s2)o1 | inconclusive [inhibitor, single point] | 
COc1ccc(C2CC(c3ccc(Cl)cc3)=NN2C(=O)c2cccc([N+](=O)[O-])c2)cc1 (stereo not drawn) | inactive | 
Cc1[nH]n(-c2ccccc2)c(=O)c1S(=O)(=O)c1ccccc1 | inconclusive [inhibitor, single point] | 
CC(=O)NC1=NC(=O)/C(=C/N2CCCCC2)S1 | inconclusive [inhibitor, single point] | 
CCOC(=O)N1CCN(C(=O)CCl)CC1 | active: 0.562 µM | 
Cc1ccnc(NC(=S)NC(=O)/C=C/c2ccco2)c1 | inconclusive [inhibitor, single point] | 
O=C(NCc1ccc(Cl)cc1)c1ccccc1Oc1ccccc1 | inconclusive [inhibitor, partial curve] | 
COC(=O)c1c(NC(=O)COC(=O)Cn2cnc3ccccc32)sc(C)c1C | active: 25.1 µM | 
O=C(O)c1ccccc1-c1cn2cc(Cl)ccc2n1 | inactive | 

SMILES | Potency | activity, negative = inhibition
O=C(NCC1CCCO1)c1ccc(CNS(=O)(=O)c2cccc(Cl)c2)cc1 (stereo not drawn) | inconclusive [inhibitor, partial curve] | 
O=[N+]([O-])c1ccc(Nc2nc(NCCO)nc(N3CCCC3)n2)cc1 | active: 1.58 µM | 
O=C(CCCN1C(=O)c2cccc3cccc(c23)C1=O)N1CCN(c2ncccn2)CC1 | active: 28.2 µM | 
CC1CN(C(=O)CCn2c(=O)oc3ccccc32)CC(C)O1 (stereo not drawn) | inconclusive [inhibitor, single point] | 
COC(=O)C1=C(C)N=C2SC(C)C(=O)N2C1/C=C/c1ccccc1 (stereo not drawn) | inconclusive [inhibitor, partial curve] | 
COC(=O)c1ccc(COc2ccccc2/C=N/Nc2cccc(C(=O)O)c2)cc1 | inconclusive [inhibitor, single point] | 
O=[N+]([O-])c1ccc(Cl)cc1Sc1cccc2cccnc12 | inconclusive [inhibitor, single point] | 
CCOC(=O)C1(CCCc2ccccc2)CCN(C(=O)C2=C(C)OCCO2)CC1 | active: 3.16 µM | 
CC(=O)Nc1cccc(-c2cn3ccc(C)cc3n2)c1 | inconclusive [inhibitor, partial curve] | 
CCOC(=O)c1cc2cc3ccccc3cc2[nH]1 | inconclusive [inhibitor, partial curve, poor fit] | 
CC1C=CCC2C(=O)N(c3ccc(Cl)cc3O)C(=O)C12 (stereo not drawn) | inactive | 
O=C(COC(=O)C12CC3CC(CC(O)(C3)C1)C2)Nc1ccccc1OC(F)F | inconclusive [inhibitor, single point] | 
COc1ccc(CCNc2nnc(Sc3nnnn3-c3ccccc3)s2)cc1OC | active: 17.8 µM | 
COCCN1C=C2C(=O)C(C)(OC(=O)C3CCCC3)C(=O)C(c3ccccc3)=C2C=C1CCCC(=O)OC (stereo not drawn) |  | inactive: -12.3% [at 13.5 µM]
COc1ccc([N+](=O)[O-])c2c1CCN2C(=O)CC[C@H](N)C(=O)O | inactive | 
O=C(O)c1cc([N+](=O)[O-])ccc1N1CCC(Cc2ccccc2)CC1 | inactive | 
COc1ccc(C(=O)Nc2ccc(S(=O)(=O)N3CCCC3)cc2)cc1 | inconclusive [inhibitor, single point] | 
Brc1ccccc1OCCCCCN1CCOCC1 | active: 11.2 µM | 
C/C(=N\NC(=S)NC(C)C)c1ccc(C(C)(C)C)cc1 | inconclusive [inhibitor, single point] | 
Cc1ccc(Cn2c(=O)oc3ccccc32)cc1 | inconclusive [inhibitor, single point] | 
O=C(NCCCCCNC(=O)c1ccco1)c1ccco1 | active: 28.2 µM | 
O=C(Cc1c[nH]c2ccccc12)N1CCc2ccccc21 | inconclusive [inhibitor, single point] | 
Nn1cnn(Cc2ccccc2)c1=S | active: 25.1 µM | 
Cc1ccc(C)c(CSc2nnc(-c3cccnc3)o2)c1 | inconclusive [inhibitor, single point] | 
